Assay results: the supplement of paper PMC4166925
± gives the standard deviation of the averaged measurements. In all, about 33,000 sequences were measured (“E-score (dimensionless, -0.5 to 0.5)”: median about -0.046, highest 2% from about 0.36 on). Some of the results follow.

What follows are sequences tested on T1, SpTbr T-box DNA-binding domain (GST fusion) (assay: PBM E-score of 8-mer (E-score (dimensionless, -0.5 to 0.5)); Tbr is Tbrain of the sea star Patiria miniata (Pm) or the sea urchin Strongylocentrotus purpuratus (Sp); higher = stronger binding preference; most listed sequences are background and not binding sites). Details: the construct has about 5 more residues each side.
T1 sequence: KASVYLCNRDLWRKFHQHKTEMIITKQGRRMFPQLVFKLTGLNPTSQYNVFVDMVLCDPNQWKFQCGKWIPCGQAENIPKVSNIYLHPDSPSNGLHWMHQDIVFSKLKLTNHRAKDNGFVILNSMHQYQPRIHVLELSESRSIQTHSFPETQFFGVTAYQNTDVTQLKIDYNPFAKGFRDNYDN
Summary of the method: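 Expression of GST-fused Tbr T-box DNA-binding domains, each holding the full T-box plus roughly five flanking residues, was carried out in BL21 E. coli at 20 °C, with purification by glutathione affinity chromatography. Universal Agilent arrays made double-stranded by primer extension were incubated with the protein at 200 nM in PBS (pH 7.5), then scanned and quantified. All ungapped 8-mers were scored from probe intensities, and each received an enrichment E-score from the Universal PBM Analysis Suite, averaged over duplicate arrays.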

Sequence	PBM E-score of 8-mer
CTGTGTTA	0.195 ± 0.079
ATTATCCA	-0.11 ± 0.0037
ATTAATCG	0.0316 ± 0.06
GGCTCTGA	-0.0838 ± 0.0016
GTGGGGCA	-0.108 ± 0.036
ATCACTTA	0.0863 ± 0.053
CTGTAGGC	-0.1 ± 0.053
TCTCATCA	0.19 ± 0.015
CACGTTAC	0.22472 ± 0.00017
CTTACTTA	-0.127 ± 0.026
CTACACTA	0.152 ± 0.058
GGTGTAAA	0.436 ± 0.012
ATAGTTAC	-0.214 ± 0.036
ACAGGTCG	0.15 ± 0.0023
AACCAACC	-0.0537 ± 0.047
AATTGTGG	0.118 ± 0.022
AAGACACT	-0.0609 ± 0.0052
AGGTCTGG	0.0378 ± 0.021
ATATACCC	-0.159 ± 0.067
CGCGAGCG	0.251 ± 0.061
ATGAGAAT	-0.0523 ± 0.014
CTATACAG	-0.172 ± 0.045
CGCACGAG	0.139 ± 0.036
AGTTCTTA	-0.119 ± 0.061
GGTTATAC	0.0871 ± 0.041

Sequence	PBM E-score of 8-mer
CACGTCTA	0.127 ± 0.024
CGGTGCGC	-0.0128 ± 0.062
CACTGCTC	0.0763 ± 0.026
GCACCCTA	0.118 ± 0.032
AATCCGTA	-0.105 ± 0.056
AATCTTTC	-0.175 ± 0.021
GTATGAAC	0.0223 ± 0.045
AATCACTG	0.118 ± 0.03
ACACTCGG	0.234 ± 0.062
GCTGGGAC	-0.115 ± 0.086
ATACACTG	-0.112 ± 0.12
GACATACC	-0.121 ± 0.024
AGAAAGCT	0.103 ± 0.04
CCGCTAGA	-0.0593 ± 0.0051
GGGACTGA	-0.12 ± 0.06
CTGGATGA	0.0537 ± 0.034
AGAAGGTG	0.386 ± 0.015
AGTAGGAG	-0.00869 ± 0.02
GGGGTAAA	-0.149 ± 0.03
AACAGTCC	0.0405 ± 0.06
AGATCGCA	0.2544 ± 0.00049
AGGAAGCG	0.0119 ± 0.006
ACGGACCT	-0.162 ± 0.11
GGCGGGCA	-0.0643 ± 0.058
AGGCATCA	-0.13 ± 0.083

Sequence	PBM E-score of 8-mer
CGAAGAGA	-0.211 ± 0.018
ACGCCCAG	0.108 ± 0.047
CCGCACCC	0.226 ± 0.032
CGCCGACC	0.0201 ± 0.12
TCAGATAA	-0.14 ± 0.017
CTGGGTAC	-0.187 ± 0.07
AGTGGAAC	-0.0571 ± 0.084
AGGTCACT	0.158 ± 0.023
ACGGTAGG	-0.181 ± 0.038
AGCGAACC	0.0666 ± 0.08
TCCGTAGA	-0.244 ± 0.0095
TAAACCTA	-0.0943 ± 0.041
CAGGCTTA	-0.136 ± 0.015
AATCATCC	-0.114 ± 0.037
AAACCGTA	-0.0446 ± 0.042
ATTCGCTA	0.208 ± 0.024
AGGGCGCC	0.102 ± 0.048
CATACGGC	-0.15 ± 0.044
GATATAGA	-0.297 ± 0.049
CTCATCAA	-0.0139 ± 0.026
CGATAGCA	0.239 ± 0.033
ATGATCTA	-0.175 ± 0.091
CTCAACCA	-0.0462 ± 0.082
CGACCCCA	0.0171 ± 0.0051
ACGGTTGG	0.0182 ± 0.044

Sequence	PBM E-score of 8-mer
ACCAGTAC	-0.1716 ± 0.00054
ACTAGGCT	-0.0965 ± 0.017
CACGCACC	0.296 ± 0.034
AGGCTAGA	-0.117 ± 0.04
CCTTCTAG	-0.0963 ± 0.12
CTGTCTGC	0.0103 ± 0.078
CAGCCCAC	-0.0939 ± 0.036
ACTCTCGA	0.03256 ± 0.00013
AGCTAGGG	-0.164 ± 0.0089
ACAGTCCG	0.00019 ± 0.0047
CGTATTAA	-0.196 ± 0.068
ACCCTATG	0.0504 ± 0.014
GCGGGGCC	-0.152 ± 0.0011
ACTAAGTC	-0.0898 ± 0.092
CCCGGCCC	-0.121 ± 0.031
TATAAAGA	-0.204 ± 0.061
ACTATCGC	0.186 ± 0.034
CTTCTTAC	0.0673 ± 0.0016
AAAGCTGT	0.152 ± 0.044
GCCAATAA	-0.0902 ± 0.069
AATGAACG	-0.145 ± 0.03
AATACGAG	-0.164 ± 0.025
AACCTACC	-0.182 ± 0.056
AACCATCC	-0.199 ± 0.02
AACAAAAT	-0.0482 ± 0.022

Sequence	PBM E-score of 8-mer
CAGGCTCC	-0.205 ± 0.057
AGGAGGAC	-0.352 ± 0.013
CCGCTCTA	0.0199 ± 0.029
CAATGGGG	-0.078 ± 0.0016
CTGGGGGA	-0.265 ± 0.018
CATAGTTC	-0.0464 ± 0.037
CGAACACC	0.321 ± 0.011
GCATGGCC	-0.201 ± 0.029
GCCTTCCC	-0.225 ± 0.017
TCGTACGA	0.146 ± 0.12
ATATAATC	-0.0774 ± 0.028
AACCACGG	0.0188 ± 0.11
ATTGGGCC	-0.2 ± 0.0042
CCCAGCGG	-0.147 ± 0.024
CGGCATTA	-0.0937 ± 0.058
CCTCCTGC	0.0807 ± 0.11
CGCATTAA	-0.108 ± 0.02
AACCTTGG	-0.0793 ± 0.032
CTGGACAA	0.0472 ± 0.036
CAACCCAG	-0.2068 ± 0.00038
ACCACCGA	-0.0877 ± 0.15
CGACAAAA	0.158 ± 0.063
AGTGCGAT	0.4291 ± 0.0025
TCTGCCCA	0.117 ± 0.065
GGTTTTGA	-0.105 ± 0.0077

Sequence	PBM E-score of 8-mer
GGTTCAGA	0.00469 ± 0.016
AGAGGACC	-0.186 ± 0.037
CTTTTGGA	-0.0247 ± 0.035
CCGATACC	-0.0553 ± 0.0017
TCCAGAGA	-0.127 ± 0.0013
TCAATAAA	-0.0792 ± 0.099
CCCTCACA	0.285 ± 0.014
ACCATCTC	-0.0155 ± 0.12
CCATATGA	-0.159 ± 0.012
ATAGAGGC	-0.0893 ± 0.012
ATTCAGGA	-0.175 ± 0.018
CTTCACGA	0.167 ± 0.043
AGTATCGC	0.185 ± 0.0083
AAAGAACT	-0.219 ± 0.0037
GCATGGTA	-0.134 ± 0.18
CTTTTCGA	-0.087 ± 0.018
GTATCGAA	0.0395 ± 0.046
CGAACAAA	0.0155 ± 0.026
TATTCGCA	0.369 ± 0.0054
GACCTCAA	-0.081 ± 0.086
CAGCGAAG	0.195 ± 0.014
CCCACCGC	0.1329 ± 0.0009
ATCTCCTG	-0.159 ± 0.017
ATTGTTCG	0.033 ± 0.038
GCACGCCA	0.0542 ± 0.013

Sequence	PBM E-score of 8-mer
CAACCGAG	0.0866 ± 0.034
GCTCGAAA	-0.0389 ± 0.092
GCGGCGCC	0.074 ± 0.059
TCTCTAAA	-0.0734 ± 0.017
ATGAGGTG	0.354 ± 0.041
TGGACACA	0.0442 ± 0.042
GCAGGGTA	-0.0833 ± 0.0094
AATCCCTG	-0.1 ± 0.0021
ACTACACT	0.119 ± 0.038
ACGATAAC	0.12 ± 0.0046
ATCGCTCG	-0.0361 ± 0.046
TTTATAAA	-0.478 ± 0.021
ACTGGAAC	-0.184 ± 0.0041
AGTCGATG	-0.0189 ± 0.13
AAGCCAGT	-0.166 ± 0.066
CGATGATC	-0.02 ± 0.078
ATGTCACG	0.204 ± 0.017
ACTCGCGG	0.318 ± 0.019
AGGGAGGC	-0.137 ± 0.044
AAGACGAG	-0.288 ± 0.056
GAGGCAAA	-0.159 ± 0.064
AGCGTTGA	0.15 ± 0.039
GACGGTGC	0.143 ± 0.026
GTGGCCAC	0.225 ± 0.026
CGGTTAAA	-0.129 ± 0.16

Sequence	PBM E-score of 8-mer
ACTGCATC	-0.11 ± 0.033
GAGGTTGA	0.0625 ± 0.014
ATTATAAA	-0.12 ± 0.0083
CCTAGCGA	0.151 ± 0.028
CAGACCAC	-0.113 ± 0.054
TACCGAGA	-0.0479 ± 0.058
AAGCCCCG	-0.156 ± 0.052
GACTCAGA	-0.207 ± 0.019
AATTTGAC	-0.01 ± 0.13
TTGAGCAA	-0.031 ± 0.046
GCAGAGAC	-0.2685 ± 0.0009
GAGTACGC	0.121 ± 0.07
GCGATTCC	0.0651 ± 0.047
ACATACCT	0.156 ± 0.025
GTACTGAC	-0.0964 ± 0.014
CTTACAAG	-0.0445 ± 0.0079
AAATTTGA	-0.202 ± 0.12
CCCCGTTA	0.026 ± 0.054
AACGCTCT	-0.063 ± 0.0016
AGGAGGTC	-0.269 ± 0.036
CAGCCCAG	-0.2 ± 0.047
CGATCTTC	-0.0484 ± 0.047
AACTACGG	-0.161 ± 0.072
CAGAGTCA	-0.278 ± 0.016
TATTCCCA	-0.169 ± 0.031

Sequence	PBM E-score of 8-mer
AGATGGTC	-0.282 ± 0.021
CGGATCCG	-0.0546 ± 0.076
GGCCCTAA	-0.259 ± 0.049
TATAGGGA	-0.252 ± 0.042
CGGGCAGC	-0.102 ± 0.074
CACCCGCG	0.321 ± 0.018
AGCCGTTA	0.235 ± 0.025
GCGGGTCA	-0.0128 ± 0.034
CTAGTCAG	-0.0473 ± 0.038
GCCGCGGA	-0.0408 ± 0.032
GAGACTAA	-0.00983 ± 0.016
CCTAAGGA	-0.1534 ± 0.0015
AGGCGACT	-0.235 ± 0.036
CCCTATGC	-0.116 ± 0.008
AGAAAGCG	0.0529 ± 0.011
ACTTCGGA	-0.0385 ± 0.046
ACTCCCCA	0.0341 ± 0.092
CCGCCCCA	-0.113 ± 0.05
AGTGTCTA	0.17 ± 0.024
